# Laboratory results: the RNAGym collection of RNA variant scans (doi:10.1073/pnas.2313332121)
# This sample is rich in variants without activity.
# B1: TPR 5TU (parent)
# chain: GGAUCUUCUCGAUCUAACAAAAAAGACAAAUCUGCCACAAAGCUUGAGAGCAUCUUCGGAUGCAGAGGCGGCAGCCUUCGGUGGCGCGAUAGCGCCAACGUUCUCAACUAUGACACGCAAAACGCGUGCUCCGUUGAAUGGAGUUUAUCAUG
# Variants of: B1
# Experiment: polymerase ribozyme fitness, log enrichment relative to wild type (log ratio); higher = more active; in vitro selection for triplet polymerase activity
# Outline: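 In triplicate, a single round of in vitro selection was run on each mutant library, PCR-built and transcribed, covering one subunit of a heterodimeric triplet polymerase ribozyme. Frozen incubation at −7 °C followed annealing with a biotinylated primer, partner subunit and triplets, and extended constructs were then gel-excised, streptavidin-captured and taken through RT-PCR. Fitness is the logarithm of genotype enrichment over wild-type enrichment, from inverse-variance-weighted replicate averages of Illumina-sequenced inputs and outputs. […] only genotypes with ≥10 input reads and ≥1 read per output were kept.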
row,Variant,polymerase ribozyme fitness (log ratio)
1,C5U A17G A30U G86U U148G,≤ -4.2
2,C5U G68C U134G U144A,≤ -4.2
3,U6A A41C G50C G84A A119G,-3.27
4,C5U A12C G34U A64U G92U C99G,≤ -4.2
5,C5G G11U G34U C57G C76G,≤ -4.2
6,C5U A21G A24C A30U G84U,≤ -4.2
7,C5G G136A,0.0107
8,U6A A21U A23G A26G C38G G62C G84U,≤ -4.2
9,C5U U9G A19U A29U G92A U104G,≤ -4.2
10,C5G G42U U53A C57G U61G G92U G126U A137G,≤ -4.2
11,C5U C38U C54U G94U A115U A119G G136U A147U,-3.8
12,C5U A16U A17U G84A C108A,≤ -4.2
13,C5U C18U C27U C76A C79A C87U C99U A107C A142U U146A,≤ -4.2
14,C5U A60C C63A G67C A106G U130A A142U,≤ -4.2
15,C5G U9C C14A U61A C85A C96G A110G,≤ -4.2
16,U6A C87G,≤ -4.2
17,C5G G46A G88A C95G U102G U135C A147C,≤ -4.2
18,C5G U44A G50A G71A C87G C108G A113C G124A,≤ -4.2
19,C5G A47C A73G C93G A142G,≤ -4.2
20,U6A A49U A60U C69G C75G A142G U148G,≤ -4.2
21,U6A U13G C96A C105U,-2.15

row,Variant,polymerase ribozyme fitness (log ratio)
1,U6A C10G A39U A40U C54G,≤ -4.2
2,C5U C27G A66C C93A G124C,≤ -4.2
3,C5G C18A A23G C54G G67A C93G C99G,≤ -4.2
4,C5G C10A A19C C57U C87U C103G G141C,≤ -4.2
5,C5G C36A G50C G68U A97U,≤ -4.2
6,C5G C35G A41G G50C A73U C79G A91U U104G,≤ -4.2
7,U6A A28C U53A U82G G86A U109C,≤ -4.2
8,C5U U7G A29C A49G G50C C76A C87U C131A G133A U145G,≤ -4.2
9,U6A A23G C76A C99G,≤ -4.2
10,C5U U7G C14G G88U U104G A150U,≤ -4.2
11,C5U C10G C32U A52C U55G G88A U101G,≤ -4.2
12,U6A C43A G94U U148C,≤ -4.2
13,U6A G80C C96U G141C U146C,≤ -4.2
14,U6A C10A G84A A89C C125G G143U,≤ -4.2
15,C5G C10U C76A C87U G92A,-2.35
16,C5G G34A U134A,-3.83
17,U6A C27G C72A G94C C116G,≤ -4.2
18,C5G G11A C54U U61G U82A C96A G126U U130G U135G,≤ -4.2
19,C5G U33G C54A C93G,≤ -4.2
20,C5U C10G C35U C75G U102G A107U C118A,≤ -4.2
21,C5G C8U A24G G34A A41G G70C A107G G124U U151G,≤ -4.2

row,Variant,polymerase ribozyme fitness (log ratio)
1,C5G C87A G133U U145C,≤ -4.2
2,C5G G46C G59A A120G G140C,≤ -4.2
3,U6A A37U G124A G126C,-2.83
4,C5G G80U G83A U90G C96A C105G,≤ -4.2
5,C5U G74A A91U C93G,≤ -4.2
6,U6A A39G C75U G83U C118U A138G,≤ -4.2
7,C5U A16U A26C C85G A122U,≤ -4.2
8,U6A C18U A28G C51U C85G U104A U109G,≤ -4.2
9,C5G C93G C95U C103G G143C U144G,≤ -4.2
10,U6A C14A C32U G74A A138C,≤ -4.2
11,C5U A23G C32A C57G G59A C87G C95A U134C,≤ -4.2
12,C5G C99A,-0.989
13,U6A A17G C18G C85G C95G A110U C123U,≤ -4.2
14,C5U A23U C43U U55A C87A C99U,≤ -4.2
15,C5G C14G A47C C57U G80A C132A,≤ -4.2
16,C5U C85G G133C U135C,≤ -4.2
17,C5G G50U C75U C79U C85U A91G,≤ -4.2
18,U6A C85U A91G C99A U151A,≤ -4.2
19,C5G C51A C87A C99G A115G G136C A147C,≤ -4.2
20,C5G U55G C85U C99A,-2.86
21,C5G G50C C95U U139A,≤ -4.2

row,Variant,polymerase ribozyme fitness (log ratio)
1,C5G G11A A26G A47C C79G,≤ -4.2
2,U6A A29C U44A U56A C76A C95U,≤ -4.2
3,C5U A24G G94A C123U G140U,≤ -4.2
4,U6A A41G G86U C87U G143A,≤ -4.2
5,U6A A19U A41G G42A C75G C99G A122C,≤ -4.2
6,C5U A64C G84A A122G G124U U144G U151A,≤ -4.2
7,C5U U6G C79G,≤ -4.2
8,C5G C10A U13G A49C C85G A107G,≤ -4.2
9,U6A C96U,-0.0433
10,C5G U111G,≤ -4.2
11,C5G U44G C57A U148A,≤ -4.2
12,C5G G25U G48C G59C C93A C114U G117U,≤ -4.2
13,C5G C103A C114U,≤ -4.2
14,C5U A17U C51U U56A C69G U148G,≤ -4.2
15,C5G A147C,-0.562
16,C5G C14G U15A G46C A91U C95G U145C,≤ -4.2
17,C5G C32A C57G U82G G84A C87U U127G,≤ -4.2
18,C5U U33A C38U C57G C93U A98U,≤ -4.2
19,U6A A19C A24U A28G G141C G152A,-3.96
20,U6A A16G U148G,≤ -4.2
